The supplement of paper PMC9446081
The whole screen tested about 39,000 compounds, of which about 220 (0.56%) showed activity. The list shows a part of the results.

tested on: Escherichia coli K-12 BW25113; experiment: relative growth (OD600 normalised to plate interquartile mean) (fraction); higher = less growth inhibition, active = 0.2 or less; settings: 50 µM; LB; incubation time: overnight (16-24 h)
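Also: static incubation at 37 °C against the wild-type strain, values averaged over two biological replicates.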

SMILES	relative growth
CNCC(=O)c1ccc(O)cc1	inactive: 0.938
O=C(O)c1ccc(=O)[nH]c1	inactive: 0.976
S=C=Nc1cccc(C2(N3CCCCC3)CCCCC2)c1	inactive: 0.999
COC(=O)C[C@H]1CC[C@H]2NC[C@@H](O)COC[C@@H]2O1	inactive: 1
Cl.Cn1c(CCCC(=O)O)nc2cc(N(CCCl)CCCl)ccc21	inactive: 1.09
O=c1[nH]c2ccccc2n1C1CCN(CCCC(c2ccc(F)cc2)c2ccc(F)cc2)CC1	inactive: 0.939
O=C(c1ccco1)N1C[C@H]2CN[C@@H](C2)C1	inactive: 1
CC(=O)Nc1cc([As](=O)(O)O)ccc1O	inactive: 1
Cc1cc2c(C(C)C)c(O)c(O)c(C=O)c2c(O)c1-c1c(C)cc2c(C(C)C)c(O)c(O)c(C=O)c2c1O	inactive: 1.02
COc1cccc2c1cc([N+](=O)[O-])c1c(C(=O)O)cc3c(c12)OCO3	inactive: 1.02
O=C1C[C@H](c2ccccc2)[C@@H]2CNCCN12	inactive: 1.03
CCC1C2CC3C4N(C)c5ccccc5C45CC(C2C5O)N3C1O (stereo not drawn)	inactive: 1.07
Cc1nc([N+](=O)[O-])c(N2CCNCC2)[nH]1	inactive: 1
NCC[C@H](NC(=O)[C@@H](N)CCCNC(N)=N[N+](=O)[O-])C(N)=O.O=CC(F)(F)F	inactive: 1.01
COc1ccc(OC(=O)N(C)C[C@H]2OCc3ccccc3-c3c(n(C)c4ccccc34)C(=O)N([C@@H](C)CO)C[C@@H]2C)cc1	inactive: 0.999
CN1C2CCC1CC(OC(=O)C(CO)c1ccccc1)C2 (stereo not drawn)	inactive: 0.973
COc1cccc(N=[N+]=[N-])c1	inactive: 0.99
CC=C(C)C(=O)OC1CC(OC(C)=O)C2(C(=O)OC)COC3C2C12COC(O)(C(=O)OC)C2C(C)(C12OC1(C)C1CC2OC2OC=CC21O)C3O (stereo not drawn)	inactive: 0.942
OC[C@H]1O[C@@H](Oc2c[nH]c3ccc(Br)c(Cl)c23)[C@H](O)[C@@H](O)[C@H]1O	inactive: 1.04
CCC(C(N)=O)N1CCCC1=O (stereo not drawn)	inactive: 1.05
CN(C)C(=O)[C@@]1(Cc2ccccc2CN=[N+]=[N-])N=C(c2ccc(OCCCO)cc2)O[C@H]1c1ccccc1N=[N+]=[N-]	inactive: 1.01
O=[N+]([O-])NC1=NCCN1Cc1ccc(Cl)nc1	inactive: 1.22

SMILES	relative growth
Nc1ccc(-c2ccccc2)cc1	inactive: 0.97
CCC(C)C1OC2(C=CC1C)CC1CC(CC=C(C)C(OC3CC(OC)C(OC4CC(OC)C(O)C(C)O4)C(C)O3)C(C)C=CC=C3COC4C(O)C(C)=CC(C(=O)O1)C34O)O2 (stereo not drawn) [ABAMECTIN (avermectin B1a shown)]	inactive: 0.77
COCC(=O)N1C[C@@H]2c3ccccc3CN[C@@H]2C1	inactive: 0.986
Nc1ccc(N2CCNCC2)cc1	inactive: 0.98
Cc1nc(N)sc1CCN	inactive: 1.02
CC1OC(OC2C(O)C(O)C(O)C(O)C2O)C(N)CC1NC(=N)C(=O)O.Cl (stereo not drawn)	inactive: 0.892
Cc1ccc(C=C2C(=O)NC(=O)NC2=O)cc1	inactive: 1.04
Cc1ccc(OC(=O)N(C)C[C@H]2OCc3ccccc3-c3c(n(C)c4ccccc34)C(=O)N([C@@H](C)CO)C[C@@H]2C)cc1	inactive: 0.99
Cc1cnc[nH]1	inactive: 0.989
CN1C(=O)/C(=C/c2cn(CC(=O)N3CCOCC3)c3ccccc23)C(=O)NC1=S	inactive: 1.04
COc1ccc([C@H]2CC(=O)N3CCNC[C@@H]23)cc1	inactive: 1.03
O=C1NC(=S)NC(=O)C1CN1CCOCC1	inactive: 0.954
CN1C[C@H]2CN(Cc3nccn3C)C[C@H]2C1=O	inactive: 0.961
CC(C)[C@H](N)C(=O)N1CCC[C@H]1B(O)O	inactive: 0.997
Cc1ccc(OC(=O)N(C)C[C@H]2OCc3ccccc3-c3c(n(C)c4ccccc34)C(=O)N([C@@H](C)CO)C[C@H]2C)cc1	inactive: 0.992
NC[C@@H](CS(=O)(=O)O)c1ccc(Cl)cc1	inactive: 0.984
C1CC(NC2CCOCC2)CCO1	inactive: 1.06
CCOC(=O)c1c(CN2CCN(c3ccccc3)CC2)n(Cc2ccccc2)c2cc(Br)c(O)cc12	inactive: 1.03
COCC12CN(C=O)C3C4C(OC)C1C3(C(OC)CC2O)C1CC2(O)C(OC)C(O)C4(OC(C)=O)C1C2OC(=O)c1ccccc1 (stereo not drawn)	inactive: 1.04
N#C[C@H]1NCc2cnnn2-c2ccccc21	inactive: 0.992
CN1C[C@@H]2C[C@H](C(=O)Nc3cccnc3)[C@@H](C1)O2	inactive: 0.97
CC(C)(O)C1C2OC(=O)C1C1(O)CC3OC34C(=O)OC2C14C (stereo not drawn)	inactive: 0.926

SMILES	relative growth
O.O.O.O=C([O-])C1[O][Sb]2[O]C(=O)C([O]2)C(C(=O)[O-])[O][Sb]2[O]C(=O)C1[O]2.[K+].[K+] (stereo not drawn)	inactive: 0.651
N#C[C@H](O[C@@H]1O[C@H](CO[C@@H]2O[C@H](CO)[C@@H](O)[C@H](O)[C@H]2O)[C@@H](O)[C@H](O)[C@H]1O)c1ccccc1	inactive: 0.992
NC(Cc1ccc(N(CCCl)CCCl)cc1)C(=O)O (stereo not drawn)	inactive: 0.99
NCCc1nc2ccccc2[nH]1	inactive: 1.03
NCCc1ccc(S(N)(=O)=O)cc1	inactive: 1.01
CCC1(O)CC(O)c2c(cc3c(c2O)C(=O)c2c(O)ccc(O)c2C3=O)C1C(=O)OC (stereo not drawn)	inactive: 1.05
CC1C(=O)OC2CCN3CC=C(COC(=O)C(C)(O)C1(C)O)C23 (stereo not drawn)	inactive: 0.993
COCC(=O)N1[C@@H]2c3ccc(C4=CCCC4)c(=O)n3C[C@H]1[C@H](CO)[C@H]2C(=O)OC	inactive: 1.01
NC(=O)[C@H]1CNC(=O)C1	inactive: 0.998
N[C@H]1C[C@H]1c1ccccc1	inactive: 0.987
O=C(O)C[C@@H]1CC[C@H]2NC[C@@H](O)COC[C@@H]2O1	inactive: 0.921
N=C(N)/N=C(\N)Nc1ccc(Cl)cc1	inactive: 0.727
Cc1ccnc(N2CCNCC2)c1	inactive: 0.989
CNCC(O)c1ccc(O)cc1.CNCC(O)c1ccc(O)cc1.O=C(O)C(O)C(O)C(=O)O (stereo not drawn)	inactive: 1.06
CC(=O)OC1C2CCC3C(C)(O)C4CC(O)C(C)(C)C4(O)C(O)CC13CC2(C)O (stereo not drawn)	inactive: 1.14
CCO[C@H]1[C@H]2CC[C@@H]1NC2	inactive: 1.02
O=c1c(O)c(-c2ccc(O)c(O)c2)oc2c(O)c(O)cc(O)c12	inactive: 1.11
CN1C(=O)[C@]23CC4=CC=C[C@H](O)[C@H]4N2C(=O)[C@@]1(CO)SS3	active: 0.0665
CCCCC(=O)N1CC[C@H]2CNC[C@H]21	inactive: 0.938
Cc1cc(CCN)on1	inactive: 0.974
O.O=P1(N(CCCl)CCCl)NCCCO1 (stereo not drawn)	inactive: 1.09
Cl.OC1CCCCC1N1CCC(c2ccccc2)CC1 (stereo not drawn)	inactive: 1.13

SMILES	relative growth
C(=N/C12CN3CN(CN(C3)C1)C2)/c1cccnc1	inactive: 0.977
O=C(O)[C@H]1C[C@H]2CCCCN2C1	inactive: 1.03
COCCCNC(=O)[C@@]1(Cc2ccccc2CN=[N+]=[N-])N=C(c2ccc(OCCCO)cc2)O[C@H]1c1ccccc1N=[N+]=[N-]	inactive: 1.02
NCC(=O)c1ccccc1	inactive: 1
CC(C)(C)[C@@]1(O)C[C@H]2OC(=O)C[C@]23C(=O)O[C@H]2OC(=O)[C@@H](O)[C@]231	inactive: 1.01
CC[C@@H](C)NC=C1C(=O)NC(=O)NC1=O	inactive: 1.01
CN(C)C(=O)Oc1cccc([N+](C)(C)C)c1.COS(=O)(=O)[O-]	inactive: 0.889
CC[C@H]1/C=C/C=C/C[C@@H](C)[C@H](O)[C@@](C)(O)C(=O)[C@@H](C)[C@H](O)[C@@H](C)C(=O)[C@@H](C)[C@H](O)[C@@H](C)/C=C/C(=O)O[C@@H]2[C@H](C)[C@H](CC1)O[C@]1(CC[C@H](C)[C@H](C[C@@H](C)O)O1)[C@H]2C	inactive: 0.939
Nc1ccc(Cl)cc1Cl	inactive: 1.02
OC[C@@H](O)Cc1ccc2c(c1)OCO2	inactive: 1.01
Cc1c(N)nc([C@H](CC(N)=O)NC[C@@H](N)C(N)=O)nc1C(=O)N[C@H](C(=O)N[C@@H](C)[C@H](O)[C@@H](C)C(=O)N[C@@H](C(=O)NCCc1nc(-c2nc(C(=O)NCCC[S+](C)C)cs2)cs1)[C@@H](C)O)[C@@H](O[C@H]1O[C@H](CO)[C@H](O)[C@@H](O)[C@H]1O[C@H]1O[C@H](CO)[C@@H](O)[C@H](OC(N)=O)[C@@H]1O)c1c[nH]cn1	active: 0.0355
CC(C)(N)Cc1ccccc1	inactive: 0.989
CN(C)[C@@H]1C(=O)[C@@H](C(N)=O)C(=O)[C@@]2(O)C(=O)[C@H]3C(=O)c4c(O)ccc(Cl)c4[C@@](C)(O)[C@H]3C[C@@H]12	active: 0.037
O=[N+]([O-])c1c(NCCO)ccc2nonc12	inactive: 1.01
NC(=O)CN1CC[C@@H](NC(=O)[C@@H]2CCCN2)C1=O	inactive: 1.02
COc1ccc(C(=O)O)cc1OC	inactive: 1.09
CN(C)C(=O)Oc1ccc[n+](C)c1.[Br-]	inactive: 0.96
COc1ccc(OC)c(CN)c1	inactive: 1
O=C1CNC[C@@H]2c3cccc(F)c3CCN12	inactive: 0.961
CCN(CC)S(=O)(=O)c1ccc(Cn2nc(C(=O)Nc3ccc(N4CCCCC4)cc3)c3ccccc32)cc1	inactive: 0.995
NC1(c2cccc(Cl)c2)CC1	inactive: 1.02
C=C(CCCCCCCCCCCCCCCC)OOC[C@@H](COP(=O)(ON)O[C@@H]1[C@H](O)[C@H](O)[C@@H](OP(=O)(O)ON)[C@H](OP(=O)(O)ON)[C@H]1O)OOC(=C)CC/C=C/C/C=C/C/C=C/C/C=C/CCCCC (stereo partly drawn)	inactive: 1.01
